Numbering of substitutions follows the chain as printed; changes in the protein carry UniProt numbers. This is one part of the list.

This passage reports binding signal results from article PMC9911399, “Two distinct binding modes provide the RNA-binding protein RbFox with extraordinary sequence specificity”.

To fix the notation:
T1: RBFOX1 RRM (Homo sapiens, UniProt Q9NWB1 109-208)
T1 sequence: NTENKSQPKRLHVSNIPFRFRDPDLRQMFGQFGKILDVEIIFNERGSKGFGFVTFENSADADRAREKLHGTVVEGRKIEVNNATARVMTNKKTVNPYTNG

B1: GGUAUUC (DNA:RNA)
RNA: GGGAGACCGGAAUUCAGAUUGUCCGGUAUUCUUAAAUCCCGUCGUAGCCACCA
DNA 1: CAATCTGAATTCCGGTCTCCC
DNA 2: TGGTGGCTACGACGGGATT
B2: UGCUUGA (DNA:RNA)
RNA: B1 RNA with G25U, U27C, A28U, U30G, C31A
DNA 1: CAATCTGAATTCCGGTCTCCC
DNA 2: TGGTGGCTACGACGGGATT
B3: AGUAGUC (DNA:RNA)
RNA: B1 RNA with G25A, U29G
DNA 1: CAATCTGAATTCCGGTCTCCC
DNA 2: TGGTGGCTACGACGGGATT
B4: UUCAGAC (DNA:RNA)
RNA: B1 RNA with G25U, G26U, U27C, U29G, U30A
DNA 1: CAATCTGAATTCCGGTCTCCC
DNA 2: TGGTGGCTACGACGGGATT
B5: GACGGUC (DNA:RNA)
RNA: B1 RNA with G26A, U27C, A28G, U29G
DNA 1: CAATCTGAATTCCGGTCTCCC
DNA 2: TGGTGGCTACGACGGGATT
B6: CUUUCAU (DNA:RNA)
RNA: B1 RNA with G25C, G26U, A28U, U29C, U30A, C31U
DNA 1: CAATCTGAATTCCGGTCTCCC
DNA 2: TGGTGGCTACGACGGGATT
B7: AACUAUG (DNA:RNA)
RNA: B1 RNA with G25A, G26A, U27C, A28U, U29A, C31G
DNA 1: CAATCTGAATTCCGGTCTCCC
DNA 2: TGGTGGCTACGACGGGATT
B8: ACGCCCG (DNA:RNA)
RNA: GGGAGACCGGAAUUCAGAUUGUCCACGCCCGUUAAAUCCCGUCGUAGCCACCA
DNA 1: CAATCTGAATTCCGGTCTCCC
DNA 2: TGGTGGCTACGACGGGATT
B9: CAAGGGC (DNA:RNA)
RNA: B1 RNA with G25C, G26A, U27A, A28G, U29G, U30G
DNA 1: CAATCTGAATTCCGGTCTCCC
DNA 2: TGGTGGCTACGACGGGATT
B10: ACAGUAU (DNA:RNA)
RNA: B8 RNA with G27A, C28G, C29U, C30A, G31U
DNA 1: CAATCTGAATTCCGGTCTCCC
DNA 2: TGGTGGCTACGACGGGATT
B11: UGCCGCG (DNA:RNA)
RNA: B8 RNA with A25U, C26G, G27C, C29G
DNA 1: CAATCTGAATTCCGGTCTCCC
DNA 2: TGGTGGCTACGACGGGATT
B12: GAUAGAC (DNA:RNA)
RNA: B1 RNA with G26A, U29G, U30A
DNA 1: CAATCTGAATTCCGGTCTCCC
DNA 2: TGGTGGCTACGACGGGATT
B13: AGGCAAG (DNA:RNA)
RNA: B8 RNA with C26G, C29A, C30A
DNA 1: CAATCTGAATTCCGGTCTCCC
DNA 2: TGGTGGCTACGACGGGATT
B14: ACCGGUA (DNA:RNA)
RNA: B8 RNA with G27C, C28G, C29G, C30U, G31A
DNA 1: CAATCTGAATTCCGGTCTCCC
DNA 2: TGGTGGCTACGACGGGATT
B15: CGAGGAU (DNA:RNA)
RNA: B1 RNA with G25C, U27A, A28G, U29G, U30A, C31U
DNA 1: CAATCTGAATTCCGGTCTCCC
DNA 2: TGGTGGCTACGACGGGATT
B16: UAUGAUC (DNA:RNA)
RNA: B1 RNA with G25U, G26A, A28G, U29A
DNA 1: CAATCTGAATTCCGGTCTCCC
DNA 2: TGGTGGCTACGACGGGATT
B17: GAGUUUG (DNA:RNA)
RNA: B1 RNA with G26A, U27G, A28U, C31G
DNA 1: CAATCTGAATTCCGGTCTCCC
DNA 2: TGGTGGCTACGACGGGATT
B18: ACCAAUU (DNA:RNA)
RNA: B8 RNA with G27C, C28A, C29A, C30U, G31U
DNA 1: CAATCTGAATTCCGGTCTCCC
DNA 2: TGGTGGCTACGACGGGATT
B19: CCUCGCU (DNA:RNA)
RNA: B8 RNA with A25C, G27U, C29G, G31U
DNA 1: CAATCTGAATTCCGGTCTCCC
DNA 2: TGGTGGCTACGACGGGATT
B20: ACCUUAC (DNA:RNA)
RNA: B8 RNA with G27C, C28U, C29U, C30A, G31C
DNA 1: CAATCTGAATTCCGGTCTCCC
DNA 2: TGGTGGCTACGACGGGATT
B21: UGCAGAC (DNA:RNA)
RNA: B1 RNA with G25U, U27C, U29G, U30A
DNA 1: CAATCTGAATTCCGGTCTCCC
DNA 2: TGGTGGCTACGACGGGATT
B22: UGAGAUA (DNA:RNA)
RNA: B1 RNA with G25U, U27A, A28G, U29A, C31A
DNA 1: CAATCTGAATTCCGGTCTCCC
DNA 2: TGGTGGCTACGACGGGATT
B23: CUCGAGC (DNA:RNA)
RNA: B1 RNA with G25C, G26U, U27C, A28G, U29A, U30G
DNA 1: CAATCTGAATTCCGGTCTCCC
DNA 2: TGGTGGCTACGACGGGATT
B24: GCCUCUA (DNA:RNA)
RNA: B8 RNA with A25G, G27C, C28U, C30U, G31A
DNA 1: CAATCTGAATTCCGGTCTCCC
DNA 2: TGGTGGCTACGACGGGATT
B25: GUAUGGU (DNA:RNA)
RNA: B1 RNA with G26U, U27A, A28U, U29G, U30G, C31U
DNA 1: CAATCTGAATTCCGGTCTCCC
DNA 2: TGGTGGCTACGACGGGATT
B26: AUAUACA (DNA:RNA)
RNA: B8 RNA with C26U, G27A, C28U, C29A, G31A
DNA 1: CAATCTGAATTCCGGTCTCCC
DNA 2: TGGTGGCTACGACGGGATT
B27: UCUCGAA (DNA:RNA)
RNA: B8 RNA with A25U, G27U, C29G, C30A, G31A
DNA 1: CAATCTGAATTCCGGTCTCCC
DNA 2: TGGTGGCTACGACGGGATT
B28: CGGAGGU (DNA:RNA)
RNA: B1 RNA with G25C, U27G, U29G, U30G, C31U
DNA 1: CAATCTGAATTCCGGTCTCCC
DNA 2: TGGTGGCTACGACGGGATT
B29: UAAUUCC (DNA:RNA)
RNA: B1 RNA with G25U, G26A, U27A, A28U, U30C
DNA 1: CAATCTGAATTCCGGTCTCCC
DNA 2: TGGTGGCTACGACGGGATT
B30: GUUCCUC (DNA:RNA)
RNA: B1 RNA with G26U, A28C, U29C
DNA 1: CAATCTGAATTCCGGTCTCCC
DNA 2: TGGTGGCTACGACGGGATT
B31: CAAGACU (DNA:RNA)
RNA: B8 RNA with A25C, C26A, G27A, C28G, C29A, G31U
DNA 1: CAATCTGAATTCCGGTCTCCC
DNA 2: TGGTGGCTACGACGGGATT

The target in this assay is T1, RBFOX1 RRM. The assay is described as follows: EMSA; HiTS-Eq, 1 nM pool, 10 min; buffer printed only for the single-RNA assays: 10 mM Tris pH 7.5, 150 mM NaCl, 3.4 mM EDTA, 0.001% NP-40, 30 C. As to conditions: tags: His6 N-terminal (pET28a); label: 5' 32P. The method, boiled down:
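Purified RbFox RRM (wild type or mutant) was equilibrated for 10 min in 50 µL with 1 nM of a 5′-radiolabelled pool of RNA with 7 randomized nucleotides, its flanks annealed to DNA oligonucleotides, across increasing protein concentrations. Free RNA was separated by 8% native PAGE, excised, reverse-transcribed, PCR-barcoded and sequenced on an Illumina HiSeq 2500. Relative association constants came from read-count changes of each variant against the control reaction, normalised to the cognate motif.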
B1: the binding signal is 0.0102 KA relative to UGCAUGU. As for B2, the binding signal was 0.0378 KA relative to UGCAUGU.

Take B3: the binding signal was 0.0132 KA relative to UGCAUGU. For the molecule B4, the binding signal is 0.00664 KA relative to UGCAUGU. As for B5, the binding signal was 0.0221 KA relative to UGCAUGU.

Turning to B6, the binding signal is 0.00217 KA relative to UGCAUGU. Turning to B7, the binding signal is 0.00645 KA relative to UGCAUGU. In the case of B8, the binding signal was 0.00309 KA relative to UGCAUGU. As to B9, the binding signal was 0.00331 KA relative to UGCAUGU. On to B10, for which the binding signal is 0.00142 KA relative to UGCAUGU. In the case of B11, the binding signal is 0.0142 KA relative to UGCAUGU.

As to B12, the binding signal was 0.0144 KA relative to UGCAUGU. For B13 the value was 0.0124 KA relative to UGCAUGU; for B14, 0.00466 KA relative to UGCAUGU. Regarding B15, the binding signal was 0.01 KA relative to UGCAUGU. In the case of B16, the binding signal is 0.0131 KA relative to UGCAUGU. As to B17, the binding signal is 0.023 KA relative to UGCAUGU. As to B18, the binding signal was 0.000256 KA relative to UGCAUGU. For B19 the value was 0.0112 KA relative to UGCAUGU.

B20: the binding signal was 0.00421 KA relative to UGCAUGU. Regarding B21, the binding signal is 0.0137 KA relative to UGCAUGU.

Consider B22, for which the binding signal was 0.0189 KA relative to UGCAUGU.

As to B23, the binding signal is 0.0101 KA relative to UGCAUGU.

Turning to B24, the binding signal is 0.00774 KA relative to UGCAUGU.

For B25, the binding signal is 0.0104 KA relative to UGCAUGU. For B26 the value was 0.000317 KA relative to UGCAUGU; for B27, 0.0115 KA relative to UGCAUGU; for B28, 0.029 KA relative to UGCAUGU.

Regarding B29, the binding signal was 0.00451 KA relative to UGCAUGU. In the case of B30, the binding signal was 0.0138 KA relative to UGCAUGU. Consider B31, for which the binding signal was 0.00609 KA relative to UGCAUGU.
